Laboratory results as given in the supplement of paper PMC4967469.
The IC50 comes from the fitted curve, where viability falls to half of the control; a limit (>, <) means that the fit lies beyond the doses tested. For AUC the same curve is integrated over the 256-fold range of doses and scaled to a fraction: 1 means no effect, lower means more sensitive. For part of these data: The top dose, if marked as inferred, was calculated from the reported fits.

How the values were obtained:
Assay in all cases: Viability of human cancer cell lines after 72 h of drug (GDSC screen)
PIK-93 = compound: CC(=O)Nc1nc(C)c(-c2ccc(Cl)c(S(=O)(=O)NCCO)c2)s1 [PIK-93]; details: top dose 20 µM
Procedure: (§1)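 Human cancer cell lines in 384-well plates, medium with 10% serum, drug for 72 h over a 256-fold dose range (nine 2-fold or five 4-fold steps up to the top dose). Adherent lines were fixed and stained with the nucleic acid dye Syto60, suspension lines read with resazurin; signal relative to control wells, capped at 0 and 100%. One two-parameter sigmoid per drug and line, fitted in a mixed model over all curves with the slope shared within a line.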

ABT-263 = compound: CC1(C)CCC(c2ccc(Cl)cc2)=C(CN2CCN(c3ccc(C(=O)NS(=O)(=O)c4ccc(N[C@H](CCN5CCOCC5)CSc5ccccc5)c(S(=O)(=O)C(F)(F)F)c4)cc3)CC2)C1 [ABT-263]; details: top dose 2 µM; top dose inferred
Procedure: as §1

piperlongumine = compound: COc1cc(/C=C/C(=O)N2CCC=CC2=O)cc(OC)c1OC [piperlongumine]; details: top dose 10 µM
Procedure: as §1

GW843682X = compound: COc1cc2ncn(-c3cc(OCc4ccccc4C(F)(F)F)c(C(N)=O)s3)c2cc1OC [GW843682X]; details: top dose 0.256 µM
Procedure: as §1

GW 441756 = compound: Cn1cc(/C=C2\C(=O)Nc3cccnc32)c2ccccc21 [GW 441756]; details: top dose 2 µM; top dose inferred
Procedure: as §1

Salubrinal = compound: O=C(/C=C/c1ccccc1)NC(NC(=S)Nc1cccc2cccnc12)C(Cl)(Cl)Cl [Salubrinal]; details: top dose 16 µM; top dose inferred
Procedure: as §1

Cell Line	AUC (PIK-93)	IC50 (PIK-93) [µM]	AUC (ABT-263)	IC50 (ABT-263) [µM]	AUC (piperlongumine)	IC50 (piperlongumine) [µM]	AUC (GW843682X)	IC50 (GW843682X) [µM]	AUC (GW 441756)	IC50 (GW 441756) [µM]	AUC (Salubrinal)	IC50 (Salubrinal) [µM]
CTB-1 (B-cell lymphoma, suspension)	0.751	8.83	0.978	> 2	0.754	4.54	0.791	0.164	0.976	> 2	0.889	> 16
CTV-1 (acute myeloid leukaemia, suspension)	0.621	2.51	0.992	> 2	0.84	5	0.418	0.00998	0.923	> 2	0.932	> 16
CW-2 (large intestine, adherent)	0.938	> 20	0.977	> 2	0.947	> 10	0.989	> 0.256	0.989	> 2	0.989	> 16
Calu-6 (lung adenocarcinoma, adherent)	0.848	18.2	0.87	> 2	0.78	4.76	0.59	0.0293	0.983	> 2	0.875	> 16
D-247MG (glioma, adherent)	0.572	2.12	0.822	1.79	0.878	> 10	0.89	> 0.256	0.98	> 2	0.862	> 16
D-263MG (glioma, adherent)	0.938	> 20	0.971	> 2	0.735	3.43	0.915	> 0.256	0.983	> 2	0.933	> 16
D-283MED (medulloblastoma, adherent)	0.991	> 20	0.57	0.191	0.852	6.72	0.991	> 0.256	0.983	> 2	0.989	> 16
D-336MG (glioma, adherent)	0.86	> 20	0.966	> 2	0.75	4.1	0.828	0.224	0.973	> 2	0.873	> 16
D-502MG (glioma, adherent)	0.746	9.66	0.965	> 2	0.74	4.56	0.964	> 0.256	0.957	> 2	0.851	> 16
DB (B-cell lymphoma, suspension)	0.574	2.05	0.713	0.545	0.802	5.64	0.859	> 0.256	0.983	> 2	0.892	> 16
DEL (lymphoid neoplasm, suspension)	0.711	4.22	0.993	> 2	0.763	2.91	0.546	0.0208	0.991	> 2	0.955	> 16
DG-75 (Burkitt lymphoma, suspension)	0.845	14.7	0.931	> 2	0.739	3.04	0.669	0.0476	0.971	> 2	0.896	> 16
DMS-79 (small cell lung carcinoma, suspension)	0.914	> 20	0.579	0.214	0.962	> 10	0.924	> 0.256	0.986	> 2	0.977	> 16
DMS-114 (small cell lung carcinoma, adherent)	0.657	3.67	0.974	> 2	0.811	6.31	0.719	0.0742	0.939	> 2	0.969	> 16
DND-41 (T-cell leukaemia, suspension)	0.292	0.353	0.499	0.124	0.821	4.92	0.577	0.0253	0.437	0.0858	0.977	> 16
DSH1 (bladder, adherent)	0.883	19.8	0.976	> 2	0.981	> 10	0.981	> 0.256	0.959	> 2	0.953	> 16
DU-4475 (breast, suspension)	0.789	7.12	0.786	0.699	0.847	5.41	0.686	0.0474	0.992	> 2	0.875	10.9
Daudi (Burkitt lymphoma, suspension)	0.853	12.6	0.974	> 2	0.822	4.89	0.625	0.0337	0.991	> 2	0.781	5.76
EB2 (Burkitt lymphoma, suspension)	0.37	0.568	0.989	> 2	0.838	5.86	0.96	> 0.256	0.99	> 2	0.979	> 16
EB-3 (Burkitt lymphoma, suspension)	0.624	2.91	0.978	> 2	0.759	4.04	0.844	0.229	0.984	> 2	0.813	10.5
EC-GI-10 (oesophagus, adherent)	0.852	15.3	0.986	> 2	0.781	4.1	0.89	> 0.256	0.987	> 2	0.979	> 16
EJM (lymphoid neoplasm, semi-adherent)	0.601	2.25	0.934	> 2	0.822	4.68	0.813	0.111	0.639	0.282	0.932	> 16

Cell Line	AUC (PIK-93)	IC50 (PIK-93) [µM]	AUC (ABT-263)	IC50 (ABT-263) [µM]	AUC (piperlongumine)	IC50 (piperlongumine) [µM]	AUC (GW843682X)	IC50 (GW843682X) [µM]	AUC (GW 441756)	IC50 (GW 441756) [µM]	AUC (Salubrinal)	IC50 (Salubrinal) [µM]
EKVX (lung adenocarcinoma, adherent)	0.906	> 20	0.922	> 2	0.863	> 10	0.948	> 0.256	0.946	> 2	0.856	> 16
EM-2 (chronic myeloid leukaemia, suspension)	0.74	6.75	0.47	0.102	0.736	3.26	0.648	0.0434	0.958	> 2	0.888	> 16
ES4 (Ewing sarcoma, adherent)	0.627	2.95	0.84	1.68	0.735	3.28	0.572	0.026	0.954	> 2	0.952	> 16
ES5 (Ewing sarcoma, adherent)	0.41	0.68	0.81	1.25	0.828	7.45	0.957	> 0.256	0.925	> 2	0.98	> 16
ES6 (Ewing sarcoma, adherent)	0.67	4.19	0.973	> 2	0.805	6.55	0.388	0.00728	0.961	> 2	0.903	> 16
ES7 (Ewing sarcoma, adherent)	0.398	0.65	0.805	1.04	0.605	1.22	0.957	> 0.256	0.944	> 2	0.912	> 16
ES8 (Ewing sarcoma, adherent)	0.628	2.74	0.761	0.661	0.643	1.5	0.41	0.00926	0.86	1.48	0.841	9.98
ES-2 (ovary, adherent)	0.925	> 20	0.966	> 2	0.881	8.3	0.736	0.0683	0.975	> 2	0.96	> 16
ETK-1 (biliary tract, adherent)	0.858	> 20	0.972	> 2	0.757	3.86	0.506	0.0167	0.916	> 2	0.915	> 16
EVSA-T (breast, adherent)	0.662	3.28	0.958	> 2	0.816	4.55	0.865	0.174	0.989	> 2	0.881	12.7
EW-1 (Ewing sarcoma, semi-adherent)	0.521	1.42	0.937	> 2	0.834	5.79	0.439	0.011	0.943	> 2	0.84	9.79
EW-3 (Ewing sarcoma, adherent)	0.521	1.44	0.276	0.0261	0.811	6.23	0.734	0.0832	0.978	> 2	0.981	> 16
EW-11 (Ewing sarcoma, adherent)	0.617	2.88	0.832	1.84	0.808	7.11	0.981	> 0.256	0.966	> 2	0.951	> 16
EW-13 (Ewing sarcoma, suspension)	0.526	1.48	0.729	0.609	0.977	> 10	0.969	> 0.256	0.964	> 2	0.97	> 16
EW-16 (Ewing sarcoma, adherent)	0.489	1.17	0.751	0.685	0.664	1.83	0.485	0.0146	0.973	> 2	0.966	> 16
EW-18 (Ewing sarcoma, suspension)	0.385	0.588	0.342	0.0441	0.927	> 10	0.986	> 0.256	0.986	> 2	0.854	14
EW-24 (Ewing sarcoma, semi-adherent)	0.989	> 20	0.863	1.4	0.975	> 10	0.907	> 0.256	0.992	> 2	0.984	> 16
EoL-1-cell (haematopoietic neoplasm, suspension)	0.774	6.91	0.337	0.0469	0.764	3.23	0.603	0.0296	0.927	> 2	0.817	7.66
Farage (B-cell lymphoma, suspension)	0.535	1.53	0.805	0.801	0.992	> 10	0.597	0.028	0.993	> 2	0.928	> 16
GAK (melanoma, adherent)	0.902	> 20	0.99	> 2	0.824	5.57	0.835	0.156	0.964	> 2	0.925	> 16
GB-1 (glioma, adherent)	0.62	2.84	0.95	> 2	0.698	2.51	0.561	0.0242	0.97	> 2	0.981	> 16
